Laboratory results: PubChem BioAssay AID504832 (National Center for Advancing Translational Sciences (NCATS), 2011)
Among all 310,000 compounds or so, about 18,000 (5.8%) were called active. The shares of active, inactive and inconclusive entries below differ from those in the screen. Calls come from the whole dose curve; as a rule, active = well fitted inhibition curve with a large enough effect; inconclusive = small, poorly fitted or top-dose-only effect, or another doubt; inactive = no such curve, though single readings can be large or run the other way. Potencies of inconclusive entries are left out as doubtful fits.

Assay: Primary qHTS for delayed death inhibitors of the malarial parasite plastid, 48 hour incubation
Conditions: P. falciparum luciferase growth in erythrocytes; series mostly up to 28.7 µM; activity change, negative = inhibition: at the top concentration
How it was run: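 Read-out is firefly luciferase luminescence from an integrated reporter in P. falciparum, so falling signal marks reduced parasite growth. Infected erythrocytes were at 2% hematocrit and 0.1% parasitemia (final) in Albumax-supplemented RPMI 1640.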
% is set by controls: 0 for no effect and ±100 for the full control effect; potency is the fitted concentration of half-maximal effect; tags give direction and shape of the fitted curve.

Row | Compound | activity change, negative = inhibition | Potency
1 | CCN1CCN(Cc2cccc(Oc3ccc(Cl)cc3)c2)CC1 | inactive: -22.3% | 
2 | CCc1c(C)nc2ncnn2c1N1CCC(C(=O)Nc2cccc(C(C)=O)c2)CC1 |  | inconclusive [inhibitor, partial curve]
3 | CC(C(=O)Nc1ccc(S(=O)(=O)N2CCCC2)cc1)N(C)Cc1ccc(F)cc1 (stereo not given) |  | inconclusive [inhibitor, single point]
4 | C=C(C)CSc1nc2c(cc1C#N)CCC2 | inactive: -2.79% | 
5 | CCOC(=O)CN1CC23C=CC(O2)C(C(=O)Nc2ccc(OCC)cc2)C3C1=O (stereo not given) | inactive: -1.75% | 
6 | O=C(Nc1ccc2c(c1)OCO2)c1cc2n(n1)C(C(F)(F)F)CC(c1ccccc1)N2 (stereo not given) |  | inconclusive [inhibitor, partial curve]
7 | Clc1ccc(CON/C=N/c2ncnc3sccc23)c(Cl)c1 | inactive: 4.57% | 
8 | O=C(Nc1ccccc1O)c1cccc(S(=O)(=O)N2CCOCC2)c1 | inactive: -4.76% | 
9 | O=C(NNC(=O)c1cc(Br)c(Br)s1)c1csc(N2CCOCC2)n1 |  | inconclusive [inhibitor, single point]
10 | CCN(CC(=O)Nc1c(F)cccc1F)C(=O)/C=C/c1cn(Cc2ccccc2)nc1-c1cccnc1 |  | inconclusive [inhibitor, partial curve]
11 | O=C(Nc1ccc(OCC(=O)N2CCOCC2)cc1)c1cccc(Cl)c1 | inactive: 2.08% | 
12 | CN(C)c1ccc(/C=N/N2C(=S)SC(C)(C)C2N(O)C(=O)Nc2ccc([N+](=O)[O-])cc2)cc1 (stereo not given) |  | inconclusive [inhibitor, single point]
13 | COc1cc(NC(=O)CCCN2C(=O)NC(C)(C)C2=O)cc(OC)c1 | inactive: 9.27% | 
14 | O=C(NN1CC(C(=O)OCc2ccc(Br)cc2)CC1=O)c1ccccc1 (stereo not given) | inactive: 1.36% | 
15 | COc1cccc(C2C(C(=O)c3cccs3)=C(O)C(=O)N2c2cc(C)on2)c1 (stereo not given) |  | inconclusive [inhibitor, partial curve, poor fit]
16 | COc1ccccc1CN=C1NC(=O)C(CC(=O)Nc2ccc(C(C)=O)cc2)S1 (stereo not given) | inactive: -17.8% | 
17 | CCN1CCN(c2nc(SC)nc3sc4c(c23)CC(C)(C)OC4)CC1 |  | active: 1.65 µM
18 | Cc1cccc(-n2ncc3c2CCCC3NC(=O)CCN2Cc3ccccc3C2=O)c1C (stereo not given) |  | inconclusive [inhibitor, partial curve, poor fit]
19 | COc1ccccc1NCC(=O)c1ccc(Cl)cc1 | inactive: -1.22% | 
20 | CC(=O)c1ccc([C@@H]2C[C@]34CN(Cc5cccc(C(F)(F)F)c5)S(=O)(=O)[C@H]3C[C@H]2O4)cc1 |  | inconclusive [inhibitor, full curve, poor fit]
